The values that follow come from article PMC12136788.

The other results are listed elsewhere or left out.

The chains are these.
T1: UNK ZnF1-3 (human, UniProt Q9C0B0 31-174)
T1 sequence: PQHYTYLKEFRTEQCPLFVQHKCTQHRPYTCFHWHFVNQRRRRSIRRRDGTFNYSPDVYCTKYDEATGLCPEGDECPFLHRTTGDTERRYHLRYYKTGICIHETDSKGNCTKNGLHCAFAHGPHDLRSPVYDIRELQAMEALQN

B1: chr3:179287964:179287965:+_ENSG00000136518_ENST00000429709|hu_hu|hu_hu_hu_mus_True|28_38 (ssRNA)
RNA: GGGAGUUCUACAGUCCGACGAUCCUUGAGUGGUGAGAUGGCCUCCAUGUUCUCCCUGGGCACGCGGAGGGCAUUGGUGUCUAUGUAGUAGGUGGGCCCGCCUUGUUUGCCUUUAUCACCAUCAAUCUCCAUCAUUGUACUUCCCAACAGAGGAUUGAGCAUCA
B2: 70718109_70718229_1044_3pUTR_ENSMUSG00000020817_ENSMUST00000076270|mouse|control|control (ssRNA)
RNA: GGGAGUUCUACAGUCCGACGAUCUCUCCAUUCUCUGCAUGUCUCUCAUCAGCAAACGCUGAGAUUCCAGAAACUGGUCGUUGGCCUUCUGCCAUGUAUGCUUUAACUGGUUGUGUUGUUGUCGUUCUUGUUCCAAGAGAUGGCCAACAGAGGAUUGAGCAUCA
B3: chr10:112654219:112654220:+_ENSG00000150593_ENST00000280154|hu_hu|FALSE|FALSE (ssRNA)
RNA: GGGAGUUCUACAGUCCGACGAUCCCAAAGGGACUUUAAUAAAUCCAAAAUCAUCUUAAAUGUACUUUCUCCAGUUGACUCUAAAACCAUUAUAAUAGCUUCAUAUACAAGCUCAUGGUGAAAAUGAGGUACUUCCAGUUCCUUCAACAGAGGAUUGAGCAUCA
B4: chr3:176740097:176740098:-_ENSG00000177565_ENST00000430069|hu_mus|hu_hu_hu_mus_True|28_78 (ssRNA)
RNA: GGGAGUUCUACAGUCCGACGAUCUGUUUUGUAUACCACAAAAGGAGGCACUUUCAGUAUCUGUAAAAGGUGUUUAGUCCUAAAACAUACUCACCUAGAGGAUAACUAAAACAGAAUAUCUGUUACACUCUAAGACCUACUCCACAACAGAGGAUUGAGCAUCA
B5: chr7:151622947:151622948:-_ENSMUSG00000031078_ENSMUST00000033407|mus_mus|motif|central (ssRNA)
RNA: GGGAGUUCUACAGUCCGACGAUCGAAGAGCCCGUAUCUGCCCUUGCACACCCCACGCCACCAGCCAUCGUCAAUCAUUUCGGUGUUGGUGAUGAUGUCAUCAGGGUCAAAGGAGAUCUCAUCAUCGCCAGCAGCCUGGUAGUCCAACAGAGGAUUGAGCAUCA
B6: 151047108_151049291_758_3pUTR_ENSG00000113140_ENST00000231061|human|control|control (ssRNA)
RNA: GGGAGUUCUACAGUCCGACGAUCCCGCAUGCGCAGGGGGAAUUCGGUCAGCUCAGAGUCCAGGCAAGGGGGGAUGUAUUUGCAAGGCCCGAUGUAGUCCAGGUGGAGCUUGUGGCCCUUCUUGGUGCCCUCCAGGGUGCACUUCAACAGAGGAUUGAGCAUCA
B7: chr2:29787112:29787113:+_ENSMUSG00000026790_ENSMUST00000113756|mus_hu|FALSE|FALSE (ssRNA)
RNA: GGGAGUUCUACAGUCCGACGAUCCCAAAUGGACACAAGCCCUCGAGGGUCUAUUGUGAAGUGCUUGGGGGCAAGUGGCCUCAAAGAAACUUGGGAGUGAGAGGUUUGCACUGAGCUUGGGAAGGGAGCCUUGGGAAAACACCACAACAGAGGAUUGAGCAUCA
B8: chr4:95690885:95690886:+_ENSMUSG00000028572_ENSMUST00000156910|mus_mus|mus_mus_mus_hu_False|38_88 (ssRNA)
RNA: GGGAGUUCUACAGUCCGACGAUCUUUAGAAAAUGUUAAAUACCAUGAGCAUGCUAAUUCAAAGGCUUAUUUUAUUUUACCAGAAGUCACAGGCAAGCAGACACCAUAAGAAUAUAUGAAAAUGAAACUCAACAAUAUAACUGUCAACAGAGGAUUGAGCAUCA
B9: chr2:216981417:216981418:+_ENSG00000079246_ENST00000392132|hu_hu|hu_hu_hu_mus_True|88_108 (ssRNA)
RNA: GGGAGUUCUACAGUCCGACGAUCCUGAUACUGAUCCUUGCCAGCAAGGGGAUUGUCAGUGCCAUCUGUGCCAUAGAGGACUAACGCAAUCUCAUCUUUGCUCUCCGAAAAUACCUGUCGUUGGACAAACAUAGUCAUCACUUUCAACAGAGGAUUGAGCAUCA
B10: 42751629_42751749_175_5pUTR_ENSG00000120925_ENST00000527424|human|control|control (ssRNA)
RNA: GGGAGUUCUACAGUCCGACGAUCUCCACCGCGAAGGAACUACCUCGCCAGUUCCCGGCGACAGAGGACAGAUUAUUUCCAGGACCGCUCCCGCCACCCCUCCCGGGCAACCCACUAGACGUCCCCUUUCUAAUUUGGAGUGCGCAACAGAGGAUUGAGCAUCA
B11: 216262523_216264051_3602_CDS_ENSG00000115414_ENST00000323926|human|control|control (ssRNA)
RNA: GGGAGUUCUACAGUCCGACGAUCAGUCACUUCUCGUGGUGCCUCUCCUCCCUGGCUUGGUCGUACACCCAGCUUAAAACCAAUUCUUGGAGCAGGCGUCCAUGUGAUCACAAUGGUGGUCUCAGUCACCUCGGUGUUGUAAGGCAACAGAGGAUUGAGCAUCA
B12: chr4:76721835:76721836:+_ENSG00000138768_ENST00000264904|hu_mus|hu_hu_hu_mus_True|78_98 (ssRNA)
RNA: GGGAGUUCUACAGUCCGACGAUCGUUUGGCUGGGGUUCUGAGAUGCCUCUGGAAUAAACUCAUGUUUUGCUAAUAAAUCCUAGUUUCUCUAUGAAAUUCUCUUUGCCAAUCCUCUUCUCUAUUAGUUGCUUUAGUUUCUCUUUCAACAGAGGAUUGAGCAUCA
B13: chr7:75932113:75932114:+_ENSG00000106211_ENST00000248553|hu_hu|hu_hu_hu_mus_False|48_108 (ssRNA)
RNA: GGGAGUUCUACAGUCCGACGAUCCUGCGACCACUCCUCGGGCAACCGGGGCACCCCGAAAGCUUGAUCGAAGAGGCGGCUGUGUGCGUACCAGUCGUCCCGGAAUGGUUCCCAGCUCGGGCUCCGCAGCAGCGAGAAGGGCACCAACAGAGGAUUGAGCAUCA
B14: chr7:151048522:151048523:+_ENSG00000013374_ENST00000566856|hu_mus|hu_hu_hu_mus_True|1_98 (ssRNA)
RNA: GGGAGUUCUACAGUCCGACGAUCCUGUUUCUUAUUUAUGACAAUUUUGAUGUAAUUUUCUUGAAAUCCGAAAGUUUCAGCUAUUUGACACCUCAGGUCUCUACCAGUGACAUGCAAGCGGGUCUCCAACAAGCUUUUCCUAUCCAACAGAGGAUUGAGCAUCA
B15: 142888011_142888131_7155_CDS_ENSMUSG00000031004_ENSMUST00000033310|mouse|control|control (ssRNA)
RNA: GGGAGUUCUACAGUCCGACGAUCCUUAUUGAGACCUGUCUUGGAAAGUCUCUUUGUGCUUGCCCGGGUUCUGACUGGUUCUGCUUGUGAAGAUUCCAAAGAUAUCUUUGCACUUUCUUCAACACUCACAGGGUUACUGGCACCCAACAGAGGAUUGAGCAUCA
B16: chr5:40767622:40767623:-_ENSG00000132356_ENST00000397128|hu_mus|hu_hu_hu_mus_False|28_108 (ssRNA)
RNA: GGGAGUUCUACAGUCCGACGAUCAUCUUUGAUUGUGGCCCUCUUCAUGGGAUCCACCUGCAGCAUAUGUUUCAAAAGGCUGAUUACUGAAGGGUUUAAGUACUGAGGGGUAUAGAAGAUCCCAUCACAUAUCUUCUUAAAAAGCAACAGAGGAUUGAGCAUCA
B17: chr4:128860887:128860888:-_ENSMUSG00000040928_ENSMUST00000106061|mus_hu|FALSE|FALSE (ssRNA)
RNA: GGGAGUUCUACAGUCCGACGAUCGAGCACAUCAUUUUGUGUGGAGCUGCUGGAGCAAUCUCUGCCUUUGCCACGAGACCAAAUGGAAAAAGGUUUCAGUUCCUGCUAGCUGUUCCUUUCAGGAGACUUGUCAAAAUGAUUGACCAACAGAGGAUUGAGCAUCA
B18: chr2:65331917:65331918:-_ENSG00000138069_ENST00000409751|hu_hu|motif|central (ssRNA)
RNA: GGGAGUUCUACAGUCCGACGAUCAUAACUGGAGGUGAUUGUUCGAAAUCUUUCCUGGCCUGCUGUGUCCCAUGCAAACCGGAGAAGAAGGCAAGACUUUCCAACCCCUGAGUCGCCAAUCAGAAGUAACUUGAAUAAAUAAUCCAACAGAGGAUUGAGCAUCA
B19: chr8:95500983:95500984:-_ENSG00000164944_ENST00000437199|hu_hu|hu_hu_hu_mus_True|28_28 (ssRNA)
RNA: GGGAGUUCUACAGUCCGACGAUCAGAACACAUCUAUCGAGUAAAGGACCGUACAUGACGGCCUCUACCACUGCCUCCACUAACAAACUUUCCUCUCGAGCCUCCACCUGCCGCUAUUGUACUAGCCCAGGACGGUCCCAGGCCCAACAGAGGAUUGAGCAUCA
B20: chr12:48362563:48362564:+_ENSG00000134291_ENST00000256686|hu_hu|hu_hu_hu_mus_False|48_58 (ssRNA)
RNA: GGGAGUUCUACAGUCCGACGAUCUCCGUCAAGCCCUUCGAUAGACCCUUGCGGGGGAAACUGUAAUCACUUUGUAUUUCUAAAAAAAAAAAAAGCCAAAAACUUUCCAAAAAGCGGGGGUGGGGUGAGGCGGGAGGGGGAGGUCAACAGAGGAUUGAGCAUCA
B21: chr2:47387770:47387771:-_ENSG00000143933_ENST00000272298|hu_mus|hu_hu_hu_mus_True|28_108 (ssRNA)
RNA: GGGAGUUCUACAGUCCGACGAUCAAGGUUUUAGGACAAUGACAGUAAGAUAAGGGAAGAAAACAUGGAGGAAUGAAGUCCUAAUUACUAUACAUGCAUAUUUUUUGGACAGUAGGGGGGGGAACCUUUUACAGAUAAGUUACACAACAGAGGAUUGAGCAUCA
B22: chr1:82408827:82408828:+_ENSG00000117114_ENST00000319517|hu_hu|motif|central (ssRNA)
RNA: GGGAGUUCUACAGUCCGACGAUCAUCUACUCGAUUUGGAAGUUUAUAUGUUGUUGUUUGGCGACUAUUUUGGAAAUCUUCGGAAGAAGCAUAUUCUAUUAAAGUAUCGGUACGAUAGGGAGUCCAGGGCAUGAAAUAAAUUUUCAACAGAGGAUUGAGCAUCA

In this assay the target is T1, UNK ZnF1-3. Briefly: nsRBNS (natural sequence RNA bind-n-seq); RBNS binding buffer (assumed for nsRBNS): 25 mM Tris pH 7.5, 150 mM KCl, 3 mM MgCl2, 0.01% Triton X-100, 500 ug/ml BSA, 20 U/ml SUPERase-In, 4 C; UNK is unkempt and MSI1 is Musashi-1; names of the RNAs are library labels; protein concentration not given here; high values mean tight binding.
On to B1, for which the binding signal stood at 0.581 enrichment R.

Turning to B2, the binding signal was 0.647 enrichment R.

As for B3, the binding signal worked out at 1.04 enrichment R.

B4 showed a binding signal of 0.739 enrichment R.

Molecule B5 returned a binding signal of 1.13 enrichment R.

B6 registered a binding signal of 0.962 enrichment R.

In turn, B7 registered a binding signal of 2.06 enrichment R.

In turn, B8 returned a binding signal of 2.38 enrichment R.

The molecule B9 showed a binding signal of 1.11 enrichment R.

Molecule B10 returned a binding signal of 1.33 enrichment R.

As for B11, the binding signal was 0.919 enrichment R.

B12 had a binding signal of 0.482 enrichment R.

The molecule B13 came in with a binding signal of 0.664 enrichment R.

B14 had a binding signal of 0.863 enrichment R.

Molecule B15 had a binding signal of 0.546 enrichment R.

Consider B16, for which the binding signal came out at 0.978 enrichment R.

The molecule B17 registered a binding signal of 1.4 enrichment R.

B18 showed a binding signal of 1.24 enrichment R.

On to B19, for which the binding signal turned out to be 1.08 enrichment R.

In the case of B20, the binding signal turned out to be 2.29 enrichment R.

Molecule B21 registered a binding signal of 1.71 enrichment R.

In turn, B22 returned a binding signal of 1.52 enrichment R.
